This is an account of results in PubChem BioAssay AID1745853 (National Center for Advancing Translational Sciences (NCATS), 2022).

What all share (assay): Primary Screen for Target Class Profiling of Small Molecule Inhibitors of Methyltransferases
The target in test [1] is Glycine N-methyltransferase (Homo sapiens) (UniProt Q14749). The following applies: purified enzyme, MTase-Glo SAH luminescence; measured here: GNMT inhibition; at 40 µM; stronger effect = lower value. Put shortly:
(§1)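 Each enzyme was assayed with SAM and its substrate. SAH formation detected by MTase-Glo luminescence; single-point 40 uM screen[…].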

Test [2] deals with Guanidinoacetate N-methyltransferase (Homo sapiens) (UniProt Q14353). The following applies: purified enzyme, MTase-Glo SAH luminescence; measured here: GAMT inhibition; at 40 µM; stronger effect = lower value. Put shortly: as §1
The target in test [3] is Histamine N-methyltransferase (Homo sapiens) (UniProt P50135). The following applies: purified enzyme, MTase-Glo SAH luminescence; measured here: HNMT inhibition; at 40 µM; stronger effect = lower value. Put shortly:
as §1

Test [4] deals with Nicotinamide N-methyltransferase (Homo sapiens) (UniProt P40261). The conditions noted are these: purified enzyme, MTase-Glo SAH luminescence; measured here: NNMT inhibition; at 40 µM; stronger effect = lower value. In a few lines:
as §1

The target of test [5] is Phenylethanolamine N-methyltransferase (Homo sapiens) (UniProt P11086). The following applies: purified enzyme, MTase-Glo SAH luminescence; measured here: PNMT inhibition; at 40 µM; stronger effect = lower value. Put shortly:
as §1

This is one part of the list. Further columns of the screen follow, without active or inactive calls.
% is set by controls: 0 for no effect and ±100 for the full control effect.

For the compound `CC(CNC(=O)CCn1ccc2cc(S(=O)(=O)N3CCCC3)ccc21)c1ccccc1` (stereo not given), the activity change, negative = inhibition in test [1] is 3.6%; in test [2], 1.84%; in test [3], 7.69%; in test [4] it was 2.63%; in test [5] it was 4.27%.

On to `Cc1ccc([N+](=O)[O-])cc1S(=O)(=O)N(C)C`, for which the activity change, negative = inhibition in test [1] is -8.22%; in test [2] it was 1.75%; in test [3] it was -1.47%; in test [4], -10.7%; in test [5] it was 3.14%.

Take `CCc1noc([C@@H]2CC(F)(F)CN2C(=O)c2cocn2)n1`: the activity change, negative = inhibition was -3.01% in test [1]; -3.13% in test [2]; -1.04% in test [3]; -7.92% in test [4]; -6.56% in test [5].

On to `CCCn1c(=O)c2ccc(C(=O)NC(C)CC)cc2n2c(=O)n(CC(=O)Nc3cc(F)ccc3F)nc12` (stereo not given), for which the activity change, negative = inhibition in test [1] was -3.8%; in test [2], -1.5%; in test [3] it was -2.68%; in test [4], -3.22%; in test [5] it was -2.42%.

Regarding `CCCn1c(=O)c2ccc(Cl)cc2n2c(=O)n(CC(=O)NCc3ccccc3Cl)nc12`, the activity change, negative = inhibition in test [1] was -2.98%; in test [2], 2.27%; in test [3] it was 0.423%; in test [4], -5.33%; in test [5] it was -5.04%.

Regarding `CC1(C(=O)NCc2ccccc2)Cc2ccccc2C(=O)N1Cc1cccc(C(F)(F)F)c1` (stereo not given), the activity change, negative = inhibition in test [1] amounted to 8.61%; in test [2] it was 0%; in test [3], 4.99%; in test [4] it was 2.32%; in test [5], 1.8%.

Take `CCc1cc2c(cc3n2CC(C)(C(=O)NC2CCC(C)CC2)N(Cc2cccc(Cl)c2)C3=O)s1` (stereo not given): the activity change, negative = inhibition was -6.18% in test [1]; 2.9% in test [2]; -5.27% in test [3]; -3.92% in test [4]; -2.69% in test [5].

With `COc1ccc(-c2cc3n(n2)CC(C)(C(=O)NCc2ccccc2)N(Cc2ccc(C)cc2)C3=O)cc1` (stereo not given), the activity change, negative = inhibition turned out to be 7.5% in test [1]; 0% in test [2]; 6.27% in test [3]; 14.6% in test [4]; 3.15% in test [5].

Take `O=C(CCn1ccn2nc3c(c2c1=O)CCCC3)N1CCSCC1`: the activity change, negative = inhibition was -1.05% in test [1]; 1.44% in test [2]; 1.18% in test [3]; -15.6% in test [4]; 16.6% in test [5].

As to `COc1cccc(CN2C(=O)c3cc(-c4ccccc4)nn3CC2(C)C(=O)NCc2ccccc2)c1` (stereo not given), the activity change, negative = inhibition in test [1] came to 9.35%; in test [2], 1.39%; in test [3], 9.26%; in test [4] it was 5.96%; in test [5] it was 2.24%.

On to `O=C1C(N2CCN(S(=O)(=O)c3cc(F)ccc3F)CC2)CCN1Cc1cccnc1` (stereo not given), for which the activity change, negative = inhibition in test [1] is -3.15%; in test [2] it was -1.92%; in test [3] it was -0.078%; in test [4], -2.53%; in test [5], -2.41%.

With `O=C(O[C@@H]1O[C@H](CO)[C@@H](O)[C@H](O)[C@H]1O)c1ccccc1`, the activity change, negative = inhibition in test [1] is 4.21%; in test [2], 2.16%; in test [3], 13.8%; in test [4], -6.24%; in test [5], 4.96%.

For `O=C(C1CCCCC1)N1CCC(OC2CCN(Cc3cccnc3)CC2)CC1`, the activity change, negative = inhibition in test [1] was -2.4%; in test [2], -2.49%; in test [3], 0.304%; in test [4], 1.73%; in test [5], 2%.

Take `COC(=O)C1=CO[C@@H](O[C@@H]2O[C@H](CO)[C@@H](O)[C@H](O)[C@H]2O)[C@H]2[C@@H]1[C@H](O)C[C@]2(C)O`: the activity change, negative = inhibition was 0.239% in test [1]; -3.6% in test [2]; 6.66% in test [3]; -12.5% in test [4]; 2.77% in test [5].

Turning to `O=C1COc2ccc(S(=O)(=O)N3CCCn4nc(CO)cc4C3)cc2N1`, the activity change, negative = inhibition in test [1] was -2.56%; in test [2], 3.16%; in test [3], 0.909%; in test [4] it was -1.07%; in test [5], -0.078%.

For `CN(C)N(C)C(=O)[C@@]1(Cc2ccccc2)CCCN(C(=O)[C@@H](Cc2c[nH]c3ccccc23)NC(=O)C(C)(C)N)C1`, the activity change, negative = inhibition is -2.83% in test [1]; 8.33% in test [2]; 6.2% in test [3]; -10.6% in test [4]; 3.23% in test [5].

As to `CCCN1C(=O)c2c(C(=O)NCc3ccc(CC)cc3)ncn2CC1(C)C(=O)NC1CCCC1` (stereo not given), the activity change, negative = inhibition in test [1] is 4.78%; in test [2] it was 0.799%; in test [3] it was 7.59%; in test [4], 6.74%; in test [5] it was 11.9%.

Regarding `COc1cccc(CN2C(=O)c3nc4ccccc4n3CC2(C)C(=O)NC2CCC(C)CC2)c1` (stereo not given), the activity change, negative = inhibition in test [1] is -2.72%; in test [2], -2.51%; in test [3], 7.76%; in test [4] it was -31%; in test [5] it was -5.71%.

With `COc1cc(C(=O)NCC2(N(C)C)CCCC2)cc(OC)c1OCc1ccccc1`, the activity change, negative = inhibition is -1.11% in test [1]; 10.1% in test [2]; -19.7% in test [3]; -7.28% in test [4]; 3.25% in test [5].

As to `COc1ccc(F)c(F)c1C(=O)c1cnc(NC2CCN(S(C)(=O)=O)CC2)nc1N`, the activity change, negative = inhibition in test [1] is 3.39%; in test [2] it was 1.16%; in test [3], 8.54%; in test [4], -22.2%; in test [5], -1.99%.

For the compound `c1cc(-c2nc(C3CCOC3)nn2Cc2ccc3c(c2)OCO3)[nH]n1` (stereo not given), the activity change, negative = inhibition in test [1] is -1.52%; in test [2], 0.381%; in test [3], 0.359%; in test [4] it was -3.85%; in test [5] it was 2.22%.

With `CN1CCC(C(=O)N2Cc3ccccc3CC3(CCN(C)C3)C2)CC1` (stereo not given), the activity change, negative = inhibition in test [1] was -1.32%; in test [2] it was 2.43%; in test [3] it was -7.76%; in test [4], -0.815%; in test [5], 7.71%.

With `CC(C)NC(=O)CCn1ccc2cc(S(=O)(=O)N3CCCC3)ccc21`, the activity change, negative = inhibition in test [1] was -1.52%; in test [2], 1.44%; in test [3] it was 0.334%; in test [4] it was 2.09%; in test [5], -0.041%.

As to `COc1ccc(Cc2nnc3ccc(C(=O)N4CCN(Cc5ccccc5)CC4)cn23)cc1`, the activity change, negative = inhibition in test [1] is -6.59%; in test [2] it was -7.46%; in test [3] it was -8.23%; in test [4], -10.3%; in test [5] it was -7.56%.

Turning to `O=C(c1ccc(C(F)(F)F)cc1)N1CCC2(C1)C(=NC1CCCCC1)NC(=O)N2c1cccnc1` (stereo not given), the activity change, negative = inhibition in test [1] is -6.13%; in test [2] it was -10.8%; in test [3] it was -3.62%; in test [4], -6.7%; in test [5], -6.47%.

`COc1ccc(Cn2c(=O)c3ccccc3n3c(-c4ccc(NC(C)=O)cc4)nnc23)cc1`: the activity change, negative = inhibition in test [1] was -5.85%; in test [2], 0%; in test [3] it was 7.21%; in test [4], -2.9%; in test [5], -0.038%.

Turning to `Cc1ccc(N2C(=O)N[C@@H]3CCN(C(=O)CC4(CC(=O)O)CCCC4)[C@@H]3C2=O)cc1`, the activity change, negative = inhibition in test [1] was -7.11%; in test [2], -6.18%; in test [3] it was -3.31%; in test [4], -6.33%; in test [5] it was -12.6%.

`CC(C)C1c2cccn2CCN1C(=O)Nc1ccc(F)cc1F` (stereo not given): the activity change, negative = inhibition was 3.27% in test [1]; 0.657% in test [2]; -2.01% in test [3]; -1.8% in test [4]; 4.77% in test [5].

Take `O=C1NCCCCCN(S(=O)(=O)c2cccs2)[C@H]2CCCC[C@@H]12`: the activity change, negative = inhibition is -2.43% in test [1]; -4.13% in test [2]; -1.66% in test [3]; -7.83% in test [4]; 8.18% in test [5].

With `CCN(CC)CCCCCCNc1cc(OC)cc2c(C)ccnc12`, the activity change, negative = inhibition in test [1] is -5.12%; in test [2], -46.3%; in test [3], -45%; in test [4] it was -28.7%; in test [5], -74.1%.
